Test results reported in the supplement of paper PMC6609913.
Counter-ions that a name gives are not always drawn. ± gives the standard deviation of the averaged measurements. The full ranking holds about 1,300 compounds; the median of “normalised cell viability” is about 1, and the lowest 2% start at about 0.14. The list shows a part of the results.

System: V-C8 (BRCA2-deficient hamster cells)
Assay: normalised cell viability (fraction of plate median); higher = more viable cells (less toxic)
Settings: 5 µM
Method in brief: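 In two screens, library drugs at 5 μM were given for 3 days (screen 1) or 6 days (screen 2) to hamster V-C8 cells without BRCA2 and V-C8 cells with BRCA2 restored, seeded 24 h earlier in 96-well plates. A resazurin assay gave the cell viability readout, expressed as modified robust per cent of sample against the plate median, with triplicate wells averaged.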

Compound | normalised cell viability (treatment time: 3 days) | normalised cell viability (treatment time: 6 days)
NC(=O)c1cnccn1 [Pyrazinamide] | 1.12 ± 0.057 | 1.05 ± 0.071
O=C(CCNNC(=O)c1ccncc1)NCc1ccccc1 [Nialamide] | 1.1 ± 0.067 | 0.952 ± 0.045
N/C(=N\C(=O)c1nc(Cl)c(N)nc1N)NCc1ccccc1 [Benzamil hydrochloride] | 0.819 ± 0.015 | 0.833 ± 0.056
Cc1nc2ccccn2c(=O)c1CCN1CCC(C(=O)c2ccc(F)cc2)CC1 [Pirenperone] | 0.963 ± 0.064 | 0.999 ± 0.048
CSc1nc2cc(Cl)c(Oc3cccc(Cl)c3Cl)cc2[nH]1 [Triclabendazole] | 0.196 ± 0.015 | 0.21 ± 0.021
COc1cccc2c1C(=O)c1c(O)c3c(c(O)c1C2=O)C[C@@](O)(C(=O)CO)C[C@@H]3O[C@H]1C[C@H](N)[C@@H](O)[C@H](C)O1 [Epirubicin hydrochloride] | 0.123 ± 0.013 | 0.163 ± 0.016
CCCN(CCC)CCc1cccc2c1CC(=O)N2 [Ropinirole HCl] | 1.04 ± 0.065 | 1.06 ± 0.054
CC(=O)O[C@H]1C(=O)[C@@]2(C)[C@H]([C@H](OC(=O)c3ccccc3)[C@]3(O)C[C@H](OC(=O)[C@H](O)[C@@H](NC(=O)c4ccccc4)c4ccccc4)C(C)=C1C3(C)C)[C@]1(OC(C)=O)CO[C@@H]1C[C@@H]2O [Paclitaxel] | 0.193 ± 0.01 | 0.199 ± 0.0046
C/C=C(/C(=C/C)c1ccc(O)cc1)c1ccc(O)cc1 [Dienestrol] | 0.968 ± 0.027 | 0.89 ± 0.11
Cc1ncc([N+](=O)[O-])n1CC(C)O (stereo not drawn) [Secnidazole] | 1.02 ± 0.029 | 1.06 ± 0.033
O=C(O)c1ccccc1OP(=O)(O)O [Fosfosal] | 1.02 ± 0.023 | 1.02 ± 0.029
Nc1cc(N2CCCCC2)nc(N)[n+]1[O-] [Minoxidil] | 0.95 ± 0.061 | 0.994 ± 0.034
COc1ccc2cc([C@H](C)C(=O)O)ccc2c1 [Naproxen] | 1.11 ± 0.11 | 1.09 ± 0.03
O=c1n(CCCN2CCN(c3cccc(Cl)c3)CC2)nc2ccccn12 [Trazodone hydrochloride] | 1.11 ± 0.075 | 1.03 ± 0.03
CC1(C)S[C@@H]2[C@H](NC(=O)[C@H](N)c3ccccc3)C(=O)N2[C@H]1C(=O)O [Ampicillin trihydrate] | 1.22 ± 0.038 | 1.07 ± 0.076
C[C@@H]1C[C@H]2[C@@H]3CCC4=CC(=O)C=C[C@]4(C)[C@@]3(Cl)[C@@H](O)C[C@]2(C)[C@@]1(OC(=O)c1ccco1)C(=O)CCl [Mometasone furoate] | 0.923 ± 0.01 | 0.893 ± 0.036
CN1CCCN(C(c2ccccc2)c2ccc(Cl)cc2)CC1 (stereo not drawn) [Homochlorcyclizine dihydrochloride] | 0.739 ± 0.037 | 0.789 ± 0.061

Compound | normalised cell viability (treatment time: 3 days) | normalised cell viability (treatment time: 6 days)
CCOc1ccc2nc(S(N)(=O)=O)sc2c1 [Ethoxzolamide] | 1.09 ± 0.034 | 1.11 ± 0.019
Nc1ncnc2c1ncn2C1OC(COP(=O)(O)O)C(O)C1O (stereo not drawn) [Adenosine 5'-monophosphate monohydrate] | 1.23 ± 0.043 | 1.09 ± 0.071
CCCCc1ccc2[nH]c(NC(=O)OC)nc2c1 [Parbendazole] | 0.159 ± 0.012 | 0.189 ± 0.014
CCc1cccc(CC)c1NC(=O)CN(CC(=O)O)CC(=O)O [Etifenin] | 1.07 ± 0.047 | 1.04 ± 0.043
CN/C(=N\CCSCc1nc[nH]c1C)NC#N [Cimetidine] | 1.04 ± 0.068 | 1.1 ± 0.021
O=C(O)c1cc(/N=N/c2ccc(S(=O)(=O)Nc3ccccn3)cc2)ccc1O [Sulfasalazine] | 1.03 ± 0.056 | 0.993 ± 0.046
CN1CCCN=C1/C=C/c1cccc(O)c1 [Oxantel pamoate] | 1.07 ± 0.1 | 1.05 ± 0.077
CC(N)CCCC(C)(C)O (stereo not drawn) [Heptaminol hydrochloride] | 0.959 ± 0.033 | 0.988 ± 0.069
Cc1cc2c(s1)Nc1ccccc1N=C2N1CCN(C)CC1 [Olanzapine] | 0.955 ± 0.028 | 0.8962 ± 0.0033
CC=CC1=C(C(=O)O)N2C(=O)[C@@H](NC(=O)[C@H](N)c3ccc(O)cc3)[C@H]2SC1 [Cefprozil] | 0.99 ± 0.14 | 0.966 ± 0.043
Cc1c(O)c(=O)n(-c2ccccc2)n1C [Antipyrine, 4-hydroxy] | 1.01 ± 0.029 | 1 ± 0.029
CC(C)OC(=O)C(C)(C)Oc1ccc(C(=O)c2ccc(Cl)cc2)cc1 [Fenofibrate] | 1 ± 0.055 | 0.994 ± 0.025
COC(=O)C1=C(C#N)NC(C)=C(C(=O)OC(C)C)C1c1cccc([N+](=O)[O-])c1 (stereo not drawn) [Nilvadipine] | 0.939 ± 0.027 | 1.04 ± 0.1
CC1CC(OC(=O)c2ccccc2O)CC(C)(C)C1 (stereo not drawn) [Homosalate] | 0.984 ± 0.17 | 1.03 ± 0.044
NC[C@@H]1O[C@@H](O[C@H]2[C@H](O)[C@@H](O[C@H]3O[C@H](CO)[C@@H](O)[C@H](N)[C@H]3O)[C@H](N)C[C@@H]2N)[C@@H](O)[C@H](O)[C@H]1O [Kanamycin A sulfate] | 0.965 ± 0.052 | 1.04 ± 0.02
O=C(CCCN1CCN(c2ccccn2)CC1)c1ccc(F)cc1 [Azaperone] | 0.863 ± 0.096 | 0.904 ± 0.11
C[C@H](CCC(=O)O)[C@H]1CC[C@H]2[C@@H]3[C@@H](O)C[C@@H]4C[C@H](O)CC[C@]4(C)[C@H]3CC[C@]12C [Urosiol] | 0.921 ± 0.017 | 0.978 ± 0.039
